Molecules are shown by their SMILES. Counter-ions that a name gives are not always drawn. The full ranking holds about 1,900 compounds; the median of “cell viability of compound + 1 nM pemigatinib relative to pemigatinib-only (DMSO) wells” is about 0.95, and the lowest 2% start at about 0.22. Some of the results follow.

This assay relates to PDC-DUC18828. Description: cell viability of compound + 1 nM pemigatinib relative to pemigatinib-only (DMSO) wells (fraction); PDC-DUC18828 is a patient-derived cholangiocarcinoma cell line; higher = less growth inhibition. Conditions: first compound 1 µM; pemigatinib concentration 1 nM; 72 h. On the procedure: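 Selleck Bioactive library screen in the patient-derived FGFR2 fusion-positive ICC cell line PDC-DUC18828 (500 cells/well). Each compound was tested at 1 uM with 1 nM pemigatinib, in triplicate, for 72 h. Viability was read by CellTiter-Glo and normalised to plate DMSO controls. Value is the paper's averaged normalised viability.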
As to `O=c1[nH]c2ccc(Cl)cc2c(N[C@@H]2CN3CCC2CC3)c1-c1nc2ccccc2[nH]1` + CCN1C(=O)N(c2c(F)c(OC)cc(OC)c2F)Cc2cnc3[nH]c(CN4CCOCC4)cc3c21 [pemigatinib], the cell viability is 0.934.
The result for `CCN(CC)C(=O)c1ccc(C2=CC3(CCNCC3)Oc3cccc(O)c32)cc1` + CCN1C(=O)N(c2c(F)c(OC)cc(OC)c2F)Cc2cnc3[nH]c(CN4CCOCC4)cc3c21 [pemigatinib] reads 0.979; that for `CN(C)C(=O)Oc1ccc[n+](C)c1` [Pyridostigmine Bromide] + CCN1C(=O)N(c2c(F)c(OC)cc(OC)c2F)Cc2cnc3[nH]c(CN4CCOCC4)cc3c21 [pemigatinib], 1.04.
As to `CN1CCN(c2nc3ccccc3nc2Cl)CC1` + CCN1C(=O)N(c2c(F)c(OC)cc(OC)c2F)Cc2cnc3[nH]c(CN4CCOCC4)cc3c21 [pemigatinib], the cell viability is 0.871.
The result for `C[C@@H]1[C@H](O)[C@@H](C)/C=C/C=C/CC/C=C/C=C/C=C/C=C/[C@H](O[C@H]2O[C@@H](C)[C@H](O)[C@@H](N)[C@H]2O)C[C@@H]2O[C@](O)(C[C@@H](O)[C@H](O)CC[C@@H](O)C[C@@H](O)C[C@@H](O)CC(=O)O[C@H]1C)C[C@H](O)[C@H]2C(=O)O` [Nystatin (Fungicidin)] + CCN1C(=O)N(c2c(F)c(OC)cc(OC)c2F)Cc2cnc3[nH]c(CN4CCOCC4)cc3c21 [pemigatinib] reads 1.01; that for `CC(C)NCC(O)c1ccccc1Cl` (centres undefined) [Clorprenaline HCl] + CCN1C(=O)N(c2c(F)c(OC)cc(OC)c2F)Cc2cnc3[nH]c(CN4CCOCC4)cc3c21 [pemigatinib], 0.982; that for `Cc1cc2c(C(C)C)c(O)c(O)c(C=O)c2c(O)c1-c1c(C)cc2c(C(C)C)c(O)c(O)c(C=O)c2c1O` [Gossypol] + CCN1C(=O)N(c2c(F)c(OC)cc(OC)c2F)Cc2cnc3[nH]c(CN4CCOCC4)cc3c21 [pemigatinib], 0.906.
For `CCc1c(C(=O)C(N)=O)c2c(OCC(=O)O)cccc2n1Cc1ccccc1` + CCN1C(=O)N(c2c(F)c(OC)cc(OC)c2F)Cc2cnc3[nH]c(CN4CCOCC4)cc3c21 [pemigatinib], the cell viability was found to be 0.923.
The result for `Cc1sc2c(c1C)C(c1ccc(Cl)cc1)=N[C@@H](CC(=O)Nc1ccc(O)cc1)c1nnc(C)n1-2` + CCN1C(=O)N(c2c(F)c(OC)cc(OC)c2F)Cc2cnc3[nH]c(CN4CCOCC4)cc3c21 [pemigatinib] reads 0.767.
To `COc1ccc(C(CN(C)C)C2(O)CCCCC2)cc1` (centres undefined) [Venlafaxine] + CCN1C(=O)N(c2c(F)c(OC)cc(OC)c2F)Cc2cnc3[nH]c(CN4CCOCC4)cc3c21 [pemigatinib] belongs 1.07.
To `C[C@]12CCC(=O)C(O)=C1CC[C@@H]1[C@@H]2CC[C@]2(C)C(=O)CC[C@@H]12` [Formestane] + CCN1C(=O)N(c2c(F)c(OC)cc(OC)c2F)Cc2cnc3[nH]c(CN4CCOCC4)cc3c21 [pemigatinib] belongs 1.01; to `N#C[C@H](O[C@@H]1O[C@H](C(=O)O)[C@@H](O)[C@H](O)[C@H]1O)c1ccccc1` [Laetrile] + CCN1C(=O)N(c2c(F)c(OC)cc(OC)c2F)Cc2cnc3[nH]c(CN4CCOCC4)cc3c21 [pemigatinib], 1.03; to `CNCC(O)c1ccc(O)cc1` (centres undefined) [Synephrine] + CCN1C(=O)N(c2c(F)c(OC)cc(OC)c2F)Cc2cnc3[nH]c(CN4CCOCC4)cc3c21 [pemigatinib], 0.986.
`CNCC(O)c1ccc(O)cc1` (centres undefined) [Synephrine HCl] + CCN1C(=O)N(c2c(F)c(OC)cc(OC)c2F)Cc2cnc3[nH]c(CN4CCOCC4)cc3c21 [pemigatinib]: the cell viability was found to be 0.935.
In the case of `CCOc1ccccc1-n1c(C(C)N2CCN(C(=O)COc3ccc(Cl)cc3)CC2)nc2ccccc2c1=O` (centres undefined) [Erastin] + CCN1C(=O)N(c2c(F)c(OC)cc(OC)c2F)Cc2cnc3[nH]c(CN4CCOCC4)cc3c21 [pemigatinib], the cell viability was 0.952.
On to `CN1[C@@H]2CC[C@H]1C[C@@H](OC(=O)C(CO)c1ccccc1)C2` (some centres undefined) [Atropine] + CCN1C(=O)N(c2c(F)c(OC)cc(OC)c2F)Cc2cnc3[nH]c(CN4CCOCC4)cc3c21 [pemigatinib], for which the cell viability turned out to be 0.994.
The result for `COc1cc(C)[nH]c(=O)c1CNC(=O)c1c(C)n([C@H](C)C2CCOCC2)c2ccccc12` + CCN1C(=O)N(c2c(F)c(OC)cc(OC)c2F)Cc2cnc3[nH]c(CN4CCOCC4)cc3c21 [pemigatinib] reads 0.971; that for `CN1C(=O)CCS(=O)(=O)C1c1ccc(Cl)cc1` (centres undefined) [Chlormezanone] + CCN1C(=O)N(c2c(F)c(OC)cc(OC)c2F)Cc2cnc3[nH]c(CN4CCOCC4)cc3c21 [pemigatinib], 1.01.
The result for `O=P1(N(CCCl)CCCl)NCCCO1` (centres undefined) [Cyclophosphamide Monohydrate] + CCN1C(=O)N(c2c(F)c(OC)cc(OC)c2F)Cc2cnc3[nH]c(CN4CCOCC4)cc3c21 [pemigatinib] reads 1.02; that for `c1ccc2c(c1)sc1ccccc12` [Dibenzothiophene] + CCN1C(=O)N(c2c(F)c(OC)cc(OC)c2F)Cc2cnc3[nH]c(CN4CCOCC4)cc3c21 [pemigatinib], 1.03.
The result for `Cc1ccc(-n2nccn2)c(C(=O)N2CCN(c3nc4cc(Cl)ccc4o3)CC[C@H]2C)c1` [Suvorexant (MK-4305)] + CCN1C(=O)N(c2c(F)c(OC)cc(OC)c2F)Cc2cnc3[nH]c(CN4CCOCC4)cc3c21 [pemigatinib] reads 0.973; that for `CCCN1CCO[C@@H]2c3cc(O)ccc3OC[C@H]21` + CCN1C(=O)N(c2c(F)c(OC)cc(OC)c2F)Cc2cnc3[nH]c(CN4CCOCC4)cc3c21 [pemigatinib], 1.07; that for `CCCCCCCCCCCCCCCC[n+]1ccccc1` [Cetylpyridinium Chloride] + CCN1C(=O)N(c2c(F)c(OC)cc(OC)c2F)Cc2cnc3[nH]c(CN4CCOCC4)cc3c21 [pemigatinib], 0.67.
Regarding `C[C@H]1CNCCc2ccc(Cl)cc21` [Lorcaserin HCl] + CCN1C(=O)N(c2c(F)c(OC)cc(OC)c2F)Cc2cnc3[nH]c(CN4CCOCC4)cc3c21 [pemigatinib], the cell viability was 0.933.
The result for `C=C1C[C@@H]2[C@H](CC[C@]3(C)C(=O)CC[C@@H]23)[C@@]2(C)C=CC(=O)C=C12` [Exemestane] + CCN1C(=O)N(c2c(F)c(OC)cc(OC)c2F)Cc2cnc3[nH]c(CN4CCOCC4)cc3c21 [pemigatinib] reads 0.943; that for `COc1cc(OC)c(OC)cc1C=O` [Asaraldehyde] + CCN1C(=O)N(c2c(F)c(OC)cc(OC)c2F)Cc2cnc3[nH]c(CN4CCOCC4)cc3c21 [pemigatinib], 0.933; that for `OC(c1ccccc1)(c1ccccc1)C1CCNCC1` [Azacyclonol] + CCN1C(=O)N(c2c(F)c(OC)cc(OC)c2F)Cc2cnc3[nH]c(CN4CCOCC4)cc3c21 [pemigatinib], 0.809.
To `CCC1(C)CC(=O)NC(=O)C1` [Bemegride] + CCN1C(=O)N(c2c(F)c(OC)cc(OC)c2F)Cc2cnc3[nH]c(CN4CCOCC4)cc3c21 [pemigatinib] belongs 1.02; to `C/C(O)=C(\C#N)C(=O)Nc1cc(Br)ccc1Br` + CCN1C(=O)N(c2c(F)c(OC)cc(OC)c2F)Cc2cnc3[nH]c(CN4CCOCC4)cc3c21 [pemigatinib], 0.863; to `CCN(Cc1ccc(Cl)nc1)/C(=C/[N+](=O)[O-])NC` [Nitenpyram] + CCN1C(=O)N(c2c(F)c(OC)cc(OC)c2F)Cc2cnc3[nH]c(CN4CCOCC4)cc3c21 [pemigatinib], 0.968.
The result for `Cc1ccccc1-n1c(Cn2ncc3c(N)ncnc32)nc2cccc(C)c2c1=O` + CCN1C(=O)N(c2c(F)c(OC)cc(OC)c2F)Cc2cnc3[nH]c(CN4CCOCC4)cc3c21 [pemigatinib] reads 0.912; that for `Cn1c(COP(=O)(NCCBr)NCCBr)cnc1[N+](=O)[O-]` + CCN1C(=O)N(c2c(F)c(OC)cc(OC)c2F)Cc2cnc3[nH]c(CN4CCOCC4)cc3c21 [pemigatinib], 0.96; that for `Cc1sc2c(c1C)C(c1ccc(Cl)cc1)=N[C@@H](CC(=O)OC(C)(C)C)c1nnc(C)n1-2` + CCN1C(=O)N(c2c(F)c(OC)cc(OC)c2F)Cc2cnc3[nH]c(CN4CCOCC4)cc3c21 [pemigatinib], 0.688.
Regarding `CCc1cc2c(s1)-n1c(C)nnc1CN=C2c1ccccc1Cl` [Etizolam] + CCN1C(=O)N(c2c(F)c(OC)cc(OC)c2F)Cc2cnc3[nH]c(CN4CCOCC4)cc3c21 [pemigatinib], the cell viability was 0.969.
The result for `O=C(O)c1nn(Cc2ccc(Cl)cc2Cl)c2ccccc12` [Lonidamine] + CCN1C(=O)N(c2c(F)c(OC)cc(OC)c2F)Cc2cnc3[nH]c(CN4CCOCC4)cc3c21 [pemigatinib] reads 0.964; that for `Cc1cc(C(C#N)c2ccc(Cl)cc2)c(Cl)cc1NC(=O)c1cc(I)cc(I)c1O` (centres undefined) [Closantel] + CCN1C(=O)N(c2c(F)c(OC)cc(OC)c2F)Cc2cnc3[nH]c(CN4CCOCC4)cc3c21 [pemigatinib], 0.988.
On to `Cc1cc(C(C#N)c2ccc(Cl)cc2)c(Cl)cc1NC(=O)c1cc(I)cc(I)c1O` (centres undefined) [Closantel Sodium] + CCN1C(=O)N(c2c(F)c(OC)cc(OC)c2F)Cc2cnc3[nH]c(CN4CCOCC4)cc3c21 [pemigatinib], for which the cell viability is 0.945.
For the molecule `CC(C)(C)c1cc(C=C(C#N)C#N)cc(C(C)(C)C)c1O` [Tyrphostin 9] + CCN1C(=O)N(c2c(F)c(OC)cc(OC)c2F)Cc2cnc3[nH]c(CN4CCOCC4)cc3c21 [pemigatinib], the cell viability was found to be 0.357.
The result for `CCOC(=O)c1cncn1[C@H](C)c1ccccc1` [Etomidate] + CCN1C(=O)N(c2c(F)c(OC)cc(OC)c2F)Cc2cnc3[nH]c(CN4CCOCC4)cc3c21 [pemigatinib] reads 0.988.

These data come from the supplement of paper PMC9588766.
